# Data taken from article PMC9911399.
# The other results are listed elsewhere or left out.
# Target: T1, RBFOX1 RRM RbFoxmut (Fox-RRM*) R118D + E147R + N151S + E152T (Homo sapiens) (UniProt Q9NWB1)
# T1 sequence: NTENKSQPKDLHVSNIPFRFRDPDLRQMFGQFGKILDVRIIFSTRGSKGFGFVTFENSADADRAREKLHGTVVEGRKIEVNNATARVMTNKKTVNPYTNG
# Test: EMSA
# Settings: HiTS-Eq, 1 nM pool, 10 min; buffer printed only for the single-RNA assays: 10 mM Tris pH 7.5, 150 mM NaCl, 3.4 mM EDTA, 0.001% NP-40, 30 C
row,Sequence,binding signal (KA relative to UGCAUGU)
1,GGGAGACCGGAAUUCAGAUUGUCCAGUAUCAUUAAAUCCCGUCGUAGCCACCA / CAATCTGAATTCCGGTCTCCC / TGGTGGCTACGACGGGATT,0.106
2,GGGAGACCGGAAUUCAGAUUGUCCCGAAUCAUUAAAUCCCGUCGUAGCCACCA / CAATCTGAATTCCGGTCTCCC / TGGTGGCTACGACGGGATT,0.116
3,GGGAGACCGGAAUUCAGAUUGUCCGGUCUCCUUAAAUCCCGUCGUAGCCACCA / CAATCTGAATTCCGGTCTCCC / TGGTGGCTACGACGGGATT,0.0247
4,GGGAGACCGGAAUUCAGAUUGUCCCGUCUCAUUAAAUCCCGUCGUAGCCACCA / CAATCTGAATTCCGGTCTCCC / TGGTGGCTACGACGGGATT,0.114
5,GGGAGACCGGAAUUCAGAUUGUCCGGUAUCAUUAAAUCCCGUCGUAGCCACCA / CAATCTGAATTCCGGTCTCCC / TGGTGGCTACGACGGGATT,0.254
6,GGGAGACCGGAAUUCAGAUUGUCCCUUAUCAUUAAAUCCCGUCGUAGCCACCA / CAATCTGAATTCCGGTCTCCC / TGGTGGCTACGACGGGATT,0.111
7,GGGAGACCGGAAUUCAGAUUGUCCGGACUCCUUAAAUCCCGUCGUAGCCACCA / CAATCTGAATTCCGGTCTCCC / TGGTGGCTACGACGGGATT,0.116
8,GGGAGACCGGAAUUCAGAUUGUCCGGUCUUCUUAAAUCCCGUCGUAGCCACCA / CAATCTGAATTCCGGTCTCCC / TGGTGGCTACGACGGGATT,0.233
9,GGGAGACCGGAAUUCAGAUUGUCCCCGAUCAUUAAAUCCCGUCGUAGCCACCA / CAATCTGAATTCCGGTCTCCC / TGGTGGCTACGACGGGATT,0.0377
10,GGGAGACCGGAAUUCAGAUUGUCCGGCUCCCUUAAAUCCCGUCGUAGCCACCA / CAATCTGAATTCCGGTCTCCC / TGGTGGCTACGACGGGATT,0.058
11,GGGAGACCGGAAUUCAGAUUGUCCCGUUUCAUUAAAUCCCGUCGUAGCCACCA / CAATCTGAATTCCGGTCTCCC / TGGTGGCTACGACGGGATT,0.0694
12,GGGAGACCGGAAUUCAGAUUGUCCGGCCUCCUUAAAUCCCGUCGUAGCCACCA / CAATCTGAATTCCGGTCTCCC / TGGTGGCTACGACGGGATT,0.0302
13,GGGAGACCGGAAUUCAGAUUGUCCCGCAUCAUUAAAUCCCGUCGUAGCCACCA / CAATCTGAATTCCGGTCTCCC / TGGTGGCTACGACGGGATT,0.166
14,GGGAGACCGGAAUUCAGAUUGUCCGGUCCCCUUAAAUCCCGUCGUAGCCACCA / CAATCTGAATTCCGGTCTCCC / TGGTGGCTACGACGGGATT,0.0622
15,GGGAGACCGGAAUUCAGAUUGUCCGGCCCCCUUAAAUCCCGUCGUAGCCACCA / CAATCTGAATTCCGGTCTCCC / TGGTGGCTACGACGGGATT,0.00732
16,GGGAGACCGGAAUUCAGAUUGUCCCAUAUCAUUAAAUCCCGUCGUAGCCACCA / CAATCTGAATTCCGGTCTCCC / TGGTGGCTACGACGGGATT,0.0578
17,GGGAGACCGGAAUUCAGAUUGUCCCGUACCAUUAAAUCCCGUCGUAGCCACCA / CAATCTGAATTCCGGTCTCCC / TGGTGGCTACGACGGGATT,0.156
18,GGGAGACCGGAAUUCAGAUUGUCCCGUAUCCUUAAAUCCCGUCGUAGCCACCA / CAATCTGAATTCCGGTCTCCC / TGGTGGCTACGACGGGATT,0.208
19,GGGAGACCGGAAUUCAGAUUGUCCGGUCUCUUUAAAUCCCGUCGUAGCCACCA / CAATCTGAATTCCGGTCTCCC / TGGTGGCTACGACGGGATT,0.0768
20,GGGAGACCGGAAUUCAGAUUGUCCUGUAUCAUUAAAUCCCGUCGUAGCCACCA / CAATCTGAATTCCGGTCTCCC / TGGTGGCTACGACGGGATT,0.298
21,GGGAGACCGGAAUUCAGAUUGUCCGCUAUCAUUAAAUCCCGUCGUAGCCACCA / CAATCTGAATTCCGGTCTCCC / TGGTGGCTACGACGGGATT,0.115
22,GGGAGACCGGAAUUCAGAUUGUCCGUCUCCCUUAAAUCCCGUCGUAGCCACCA / CAATCTGAATTCCGGTCTCCC / TGGTGGCTACGACGGGATT,0.137
23,GGGAGACCGGAAUUCAGAUUGUCCCGUAUCAUUAAAUCCCGUCGUAGCCACCA / CAATCTGAATTCCGGTCTCCC / TGGTGGCTACGACGGGATT,0.103
24,GGGAGACCGGAAUUCAGAUUGUCCCGCCUCAUUAAAUCCCGUCGUAGCCACCA / CAATCTGAATTCCGGTCTCCC / TGGTGGCTACGACGGGATT,0.0711
25,GGGAGACCGGAAUUCAGAUUGUCCGAUCUCCUUAAAUCCCGUCGUAGCCACCA / CAATCTGAATTCCGGTCTCCC / TGGTGGCTACGACGGGATT,0.0833
26,GGGAGACCGGAAUUCAGAUUGUCCGGUUUCCUUAAAUCCCGUCGUAGCCACCA / CAATCTGAATTCCGGTCTCCC / TGGTGGCTACGACGGGATT,0.172
27,GGGAGACCGGAAUUCAGAUUGUCCGCCAUCAUUAAAUCCCGUCGUAGCCACCA / CAATCTGAATTCCGGTCTCCC / TGGTGGCTACGACGGGATT,0.102
28,GGGAGACCGGAAUUCAGAUUGUCCGGUCUCAUUAAAUCCCGUCGUAGCCACCA / CAATCTGAATTCCGGTCTCCC / TGGTGGCTACGACGGGATT,0.107
29,GGGAGACCGGAAUUCAGAUUGUCCGCGAUCAUUAAAUCCCGUCGUAGCCACCA / CAATCTGAATTCCGGTCTCCC / TGGTGGCTACGACGGGATT,0.147
30,GGGAGACCGGAAUUCAGAUUGUCCCCUAUCAUUAAAUCCCGUCGUAGCCACCA / CAATCTGAATTCCGGTCTCCC / TGGTGGCTACGACGGGATT,0.151
